# Source: article PMC4336329 (PLoS ONE, 2015)
# Hit rate of the full screen: of about 310,000 compounds, about 14,000 (4.5%) showed an effect of 50% or more. Effects have a minus sign here. This is one part of the list.
# Target: human ether-à-go-go-related gene (hERG) potassium channel (human, UniProt Q12809)
# Assay: primary screen, population patch clamp on CHO cells stably expressing hERG
# 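Also: peak tail current of the secondary pulse compared with the same well before compound.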
# human ether-à-go-go-related gene (hERG) potassium channel, sequence (Q12809 whole entry, looked up): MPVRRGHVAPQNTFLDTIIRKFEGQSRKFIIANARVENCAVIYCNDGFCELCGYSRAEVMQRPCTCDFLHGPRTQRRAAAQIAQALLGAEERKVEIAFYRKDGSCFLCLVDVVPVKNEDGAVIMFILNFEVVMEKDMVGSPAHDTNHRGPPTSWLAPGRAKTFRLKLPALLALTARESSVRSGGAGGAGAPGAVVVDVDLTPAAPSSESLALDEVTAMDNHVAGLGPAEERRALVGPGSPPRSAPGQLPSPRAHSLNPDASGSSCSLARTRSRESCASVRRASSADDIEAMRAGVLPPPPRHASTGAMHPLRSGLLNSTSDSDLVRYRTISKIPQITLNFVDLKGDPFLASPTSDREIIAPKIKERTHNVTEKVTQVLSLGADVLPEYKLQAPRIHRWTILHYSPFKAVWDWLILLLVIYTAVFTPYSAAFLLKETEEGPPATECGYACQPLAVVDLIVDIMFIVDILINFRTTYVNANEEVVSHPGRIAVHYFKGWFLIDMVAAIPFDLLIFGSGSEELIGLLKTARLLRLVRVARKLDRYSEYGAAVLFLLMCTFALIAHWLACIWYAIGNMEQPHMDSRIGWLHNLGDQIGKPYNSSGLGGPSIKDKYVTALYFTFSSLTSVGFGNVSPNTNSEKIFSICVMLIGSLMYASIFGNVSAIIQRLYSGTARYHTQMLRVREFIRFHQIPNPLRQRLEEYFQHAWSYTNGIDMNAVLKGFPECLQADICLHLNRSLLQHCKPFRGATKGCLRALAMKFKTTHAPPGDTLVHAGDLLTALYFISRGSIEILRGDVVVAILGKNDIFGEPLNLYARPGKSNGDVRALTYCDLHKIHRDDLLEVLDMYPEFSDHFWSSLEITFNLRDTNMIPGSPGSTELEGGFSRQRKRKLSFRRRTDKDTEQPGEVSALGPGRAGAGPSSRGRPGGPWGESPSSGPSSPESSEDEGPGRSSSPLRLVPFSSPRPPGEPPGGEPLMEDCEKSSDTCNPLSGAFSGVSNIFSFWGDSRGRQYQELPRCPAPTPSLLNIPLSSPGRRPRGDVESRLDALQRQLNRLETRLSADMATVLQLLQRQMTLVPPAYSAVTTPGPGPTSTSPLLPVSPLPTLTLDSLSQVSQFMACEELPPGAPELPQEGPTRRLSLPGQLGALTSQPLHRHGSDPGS
row,SMILES,"hERG current change (%, negative = inhibition) at 10uM"
1,O=C(NNC(=O)c1sc2cccc(Cl)c2c1Cl)NC1CCCCC1,13.8%
2,O=C(NCCCc1ccccc1)C1CC(=O)N(c2ccc3c(c2)OCCO3)C1 (centres unmarked),-11.1%
3,CN1C(=S)SC(N(O)C(=O)Nc2ccc(Cl)c(Cl)c2)C1(C)C (centres unmarked),1.39%
4,COc1ccc(C(=O)CSc2nnnn2Cc2ccccc2)cc1,-2.62%
5,CSc1cccc(NC(=O)CCS(=O)(=O)c2cccc3nonc23)c1,-15.1%
6,CC(=O)NC(Cc1cccc(F)c1)C(=O)NC1CCN(c2nnnn2-c2ccccc2)CC1 (centres unmarked),-5.71%
7,O=C1CCCN1CC(O)CS(=O)(=O)Cc1ccccc1 (centres unmarked),12.9%
8,CC1(c2ccc(Cl)cc2)NC(=O)N(CN2CCOCC2)C1=O (centres unmarked),19%
9,COc1ccccc1N1C(=O)Cc2ccccc2C1=O,13.3%
10,COC(=O)C1=C(c2ccc(-c3ccccc3)c(F)c2)C[C@@H]2CC[C@H]1N2C(=O)NCCOc1ccccc1Cl,13.4%
11,Cc1cc2cc(C(c3nnnn3Cc3ccco3)N3CCCCC3)c(=O)[nH]c2cc1C (centres unmarked),21.9%
12,COC(=O)C1(CC2CC(c3ccccc3)=NO2)CCN(C(=O)OC(C)(C)C)CC1 (centres unmarked),-11.4%
13,N#Cc1cccc(NC(=O)CSc2ccccc2)c1,1.96%
14,CC[C@@H](C)C(NC(=O)OC(C)(C)C)c1cn([C@@H](CCC(=O)OC(C)(C)C)C(=O)N2CCN(C(=O)OC(C)(C)C)CC2)nn1 (some centres unmarked),-17.6%
15,CC(Cc1ccccc1)NC(=O)Cc1ccc(N(C)C)cc1 (centres unmarked),2.93%
16,Cc1ccccc1CNC(=O)c1cc2ccccc2o1,3.09%
17,O=C(CN1CCOCC1)Nc1nc(-c2ccc3c(c2)CCN3S(=O)(=O)c2ccccc2)cs1,15.5%
18,COc1cccc(CNC(=O)C2CC(=O)N(c3ccc4c(c3)OCCO4)C2)c1 (centres unmarked),7.58%
19,CCC(C(=O)NCCc1c[nH]c2cc(OC)ccc12)c1ccccc1 (centres unmarked),8.86%

row,SMILES,"hERG current change (%, negative = inhibition) at 10uM"
1,CCCNC(=O)Nc1ccc(C(F)(F)F)cc1,1.65%
2,COc1ccc(-c2nnc(SCC(=O)Nc3cccnc3Cl)n2C)cc1,-25%
3,Cc1cc(C(=O)N/N=C/c2ccc(-c3ccc(C)c(Cl)c3)o2)n[nH]1,2.16%
4,COc1cc(/C=C/C(=O)OCC(=O)Nc2ccccc2Sc2ccc(Cl)cc2)ccc1O,5.21%
5,COc1cc(Cl)c(C)cc1NC(=O)CC1SC(N2CCOCC2)=NC1=O (centres unmarked),-7.91%
6,Cc1ccc(C(=O)NCCCNC(=O)COc2ccc(C)c(C)c2)cn1,1.33%
7,CCOc1c(Br)cc(C(N)=O)cc1OCc1ccccc1,14.8%
8,CCSc1nnc(NC(=O)C2(C)Cc3ccccc3C(=O)O2)s1 (centres unmarked),-8.01%
9,COC(=O)C1=NN(C(=O)c2ccccc2)C(C)(O)C1 (centres unmarked),14.6%
10,Cc1ccc([N+](=O)[O-])cc1-c1ccc(/C=N/NC(=O)CN2CCOCC2)o1,-38.9%
11,CCC(C)(C)NC(=O)C(c1ccc(C)o1)N(Cc1ccc2c(c1)OCO2)C(=O)c1snc(C(N)=O)c1N (centres unmarked),9.31%
12,CC(=O)c1cccc(NC(=O)CSc2nc(=O)n(Cc3ccccn3)c3c2CCC3)c1,-15.2%
13,CCn1c(/C=C/Nc2ccccc2)[n+](CC)c2cc(Cl)c(Cl)cc21.[I-],-79.3%
14,CS(=O)(=O)Nc1ccccc1C(=O)Nc1ccccc1C(=O)N1CCCC1,17.6%
15,O=c1[nH]c2ccccc2n1Cc1ccc(Cl)cc1,-4.12%
16,CCc1ccc(NC(=O)Cc2c(C(=O)O)n(C)c3ccccc23)cc1,33.5%
17,CC1CCCCC1NC(=O)c1nn(C)c2c1CS(=O)(=O)c1ccccc1-2 (centres unmarked),-3.59%
18,CC1CCCC(C)N1CC(O)COc1c(F)cc(Br)cc1F.Cl (centres unmarked),-57.7%
19,COc1cccc(NC(=O)CSc2nnc(-c3cc(C)n(-c4ccccc4)c3C)o2)c1,7.68%

row,SMILES,"hERG current change (%, negative = inhibition) at 10uM"
1,CC(C)n1nnnc1SCC(=O)Nc1ccc2c(c1)OCCO2,5.06%
2,CN(C(=O)CCOc1ccccc1)c1c(N)n(Cc2ccccc2)c(=O)[nH]c1=O,-1.84%
3,COC(=O)C1=C(c2cccc(OC)c2OC)C[C@@H]2CC[C@H]1N2C(=O)NCc1ccccc1,-0.545%
4,Cc1ccnc(NS(=O)(=O)c2ccc(NC(=O)/C=C/c3cccs3)cc2)n1,-4.19%
5,Cn1c(=O)c2c(nc(-n3ccnc3)n2C)n(C)c1=O,6.48%
6,CCOC(=O)C(C)On1c(-n2nc(C)cc2C)nc2ccccc2c1=O (centres unmarked),9.29%
7,Cc1cc(NC(=O)CSc2nnc(-c3ccc([N+](=O)[O-])cc3)o2)no1,9.07%
8,CCc1noc(C)c1C(=O)OCC(=O)NC(=O)c1ccccc1OC,12.5%
9,CCOc1ccc(N2CSC3=C(C#N)C(c4ccco4)CC(=O)N3C2)cc1 (centres unmarked),-6.43%
10,C/C(=N/NC(=O)c1ccccc1)C(=O)O,8.3%
11,C=CCNC(=S)Nc1nc2c(cc1C(=O)OCC)CCCC2,-2.03%
12,COCC1CCCN(C(=O)c2cc(COc3cncc(Cl)c3)on2)C1 (centres unmarked),12.5%
13,COc1ccccc1CNCC(O)(c1ccc(F)cc1)c1ccc(F)cc1,-68%
14,CCc1c(C)nc2ccc(Br)cc2c1SCCC#N,-32.8%
15,CC(C)(C)NC(=O)CSc1nncn1NCc1ccccc1,8.93%
16,Nc1c(C(=O)N/N=C/c2cccnc2)cnn1-c1ccccc1,-9.82%
17,COc1ccc(N2CCN(C(=O)c3ccc4c(=O)n5c(nc4c3)CCCCC5)CC2)cc1,-25.4%
18,CCCn1ncc(C(=O)N(C)C2CCCN(Cc3ccccc3F)C2)c1C (centres unmarked),6.14%
